Assay results as given in PMC7819943, “Rice protein-binding microarrays: a tool to detect cis-acting elements near promoter regions in rice”.
This is one part of the list.

target: T1, OsWOX13 (Oryza sativa, UniProt Q5QMM3 1-267); assay: protein-binding microarray (RPBM); PBS, 2% BSA, 51.3 ng/ul salmon testes DNA, 50 uM zinc acetate, 200 nM TF, 25 C, 1 h; high values mean tight binding; settings: protein: recombinant; tags: N-terminal polyhistidine and DsRed monomer fusion (pET32a); label: CyDye5-dUTP incorporated in the synthesized complementary strand; 3' TTTTT single-stranded linker to array surface; dsDNA, one strand shown
T1 sequence: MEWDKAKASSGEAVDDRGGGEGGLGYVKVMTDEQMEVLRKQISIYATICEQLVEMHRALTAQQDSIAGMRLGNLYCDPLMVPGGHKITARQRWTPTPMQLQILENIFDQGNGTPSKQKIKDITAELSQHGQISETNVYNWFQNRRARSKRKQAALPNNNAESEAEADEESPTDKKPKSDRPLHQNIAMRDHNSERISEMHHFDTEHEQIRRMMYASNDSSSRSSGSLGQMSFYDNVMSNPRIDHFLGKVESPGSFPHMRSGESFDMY
Outline: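 Binding signal is reported as fluorescence intensity per feature (arbitrary units) from an Axon 4000B scanner. Incubation used 200 nM of each Ni–NTA-purified, N-terminally polyhistidine- and DsRed-fused transcription factor from E. coli BL21-CodonPlus on a double-stranded custom Agilent array for 1 h at 25 °C, with 50 µM zinc acetate in the buffer, followed by washing.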

Sequence	binding signal
TTGTTTTGATTAATTGCAGTTTTAGACTTGCTCCGCTTCTCGGAGTCACCTAGTGCAG	33100 fluorescence intensity (a.u.)
CTCGACATGCTATGATTAGTGAATCTTAATATTTTGTATTCGGAGTCACCTAGTGCAG	4120 fluorescence intensity (a.u.)
ACAGTTATTAATACGTGATTAATTAAGTACCCATTAATACCGGAGTCACCTAGTGCAG	28300 fluorescence intensity (a.u.)
GTGTTTAATTAGGAGGGAATTCATATCCTTTGTTTGGTGGCGGAGTCACCTAGTGCAG	20500 fluorescence intensity (a.u.)
GAAGCAATCAATTAAAATAATGCCTTGAGTGCATGCAATTCGGAGTCACCTAGTGCAG	18300 fluorescence intensity (a.u.)
ATAATTGTTTAGTTCCTTCAAACTTTCAACTTTTCCGTCACGGAGTCACCTAGTGCAG	14600 fluorescence intensity (a.u.)
CGTGATTTACCATTTACGTTACGAGTAATCTCCCTATGAACGGAGTCACCTAGTGCAG	27600 fluorescence intensity (a.u.)
GGCTTAATAGATTTAATTAATTGAAGGATAATCGAACCGTCGGAGTCACCTAGTGCAG	43900 fluorescence intensity (a.u.)
CATATTACGATAAATTAGTATTAGGCCGACCCAAGGCCTGCGGAGTCACCTAGTGCAG	6820 fluorescence intensity (a.u.)
TTTAATTGATACAAGTTGCTGGGATCATTTGTACCCAAAACGGAGTCACCTAGTGCAG	38200 fluorescence intensity (a.u.)
GTGGTGTAGGAGCAAATTGACGAGATGCGAGCAGTGCGACCGGAGTCACCTAGTGCAG	7570 fluorescence intensity (a.u.)
AGGATAACAATTGATATTAGTTTATTCTCTAATATTCATGCGGAGTCACCTAGTGCAG	6550 fluorescence intensity (a.u.)
GGTTCAACGGTACCCTTGATTGCTATAGAGAGTGATATATCGGAGTCACCTAGTGCAG	4670 fluorescence intensity (a.u.)
TGCAGAGTAATGATTAGAACCAAACCTCGTCAATTCAAGGCGGAGTCACCTAGTGCAG	3450 fluorescence intensity (a.u.)
ATAAGTTAATAGATAGATTAACTTCATTTCTGATTATGAACGGAGTCACCTAGTGCAG	15900 fluorescence intensity (a.u.)
TGTTGATTGTTGTGTTTAATTGGAGATTGACTATTGAATCCGGAGTCACCTAGTGCAG	60200 fluorescence intensity (a.u.)
CATTCCTGATTATGCAAATCAATGACCAGGCCATAATTGTCGGAGTCACCTAGTGCAG	31000 fluorescence intensity (a.u.)
ATTGAACTTAATTTGTTTGGAGAAGGGGCGGCATGGTACCCGGAGTCACCTAGTGCAG	9790 fluorescence intensity (a.u.)
ACTAATTAGCACTCCCAATGTCATATTATAGAGGGCATACCGGAGTCACCTAGTGCAG	39700 fluorescence intensity (a.u.)
GCTGGATTAGTACTAATCTTGGTACTACTTGTTTAAATTTCGGAGTCACCTAGTGCAG	5700 fluorescence intensity (a.u.)
CAGGATTGATCAGCAAATCAAGCGATGATGATAAGAACAACGGAGTCACCTAGTGCAG	14900 fluorescence intensity (a.u.)
AGATAAATTATGCGACACGCTAATAATACAGATCTATGCACGGAGTCACCTAGTGCAG	9780 fluorescence intensity (a.u.)
AACTAATTAAAGCACAAGATACGCATGTTATCTCAATAAACGGAGTCACCTAGTGCAG	3960 fluorescence intensity (a.u.)
ACGAACAAAATTAATCAGGAAGATCAACACGAAGCCGGACCGGAGTCACCTAGTGCAG	4060 fluorescence intensity (a.u.)
AGTTGATTTTGAACTTACAATGATATTCTCTGGTAGTAGTCGGAGTCACCTAGTGCAG	13800 fluorescence intensity (a.u.)
TTTCTTTACTGATTGGTTTGTTTTATGCGCACATTGTTACCGGAGTCACCTAGTGCAG	27600 fluorescence intensity (a.u.)
CAAAATTAGTTTGATTCTAAAATTGAATATATTTTGATAACGGAGTCACCTAGTGCAG	10600 fluorescence intensity (a.u.)

Sequence	binding signal
AGAGTTAAATTACACCGGTTTTAACAGCTGAGGGGCCATACGGAGTCACCTAGTGCAG	6400 fluorescence intensity (a.u.)
TTGCTAATGACGGATTAATTATGCTTAATAAATTCATCTCCGGAGTCACCTAGTGCAG	20600 fluorescence intensity (a.u.)
TATTCAATCATCCAAGGTTTGCATATCATTGACCGGCGTGCGGAGTCACCTAGTGCAG	14400 fluorescence intensity (a.u.)
CCAAACTTCTAATTTTGATGTGAACACCCTATGTTATAAACGGAGTCACCTAGTGCAG	3540 fluorescence intensity (a.u.)
CGAGACCATGATAGATAGGCTTTCCAAACTTCCTAGCCAGCGGAGTCACCTAGTGCAG	9220 fluorescence intensity (a.u.)
CCTAAATTATCGTGGAACTGTACGTCAGTGTAATAATTGTCGGAGTCACCTAGTGCAG	14300 fluorescence intensity (a.u.)
CAAGACAAATTTAGTTTATACCTTTAAAAGTCTGTCATCTCGGAGTCACCTAGTGCAG	4030 fluorescence intensity (a.u.)
GAATAATTGCTGGAACGCAGGATTCCCTTCTGGGCCTCCGCGGAGTCACCTAGTGCAG	18200 fluorescence intensity (a.u.)
CAGAATGACAACATTGACTGATTGACACTAGAAATACATACGGAGTCACCTAGTGCAG	39000 fluorescence intensity (a.u.)
TAGATCTTAGCTTAATTAGCTTAGATTATACAAGTGGTCACGGAGTCACCTAGTGCAG	4760 fluorescence intensity (a.u.)
CTTGATATTAGTGATACAAAATTTCGTCAGCCATAGACGGCGGAGTCACCTAGTGCAG	3900 fluorescence intensity (a.u.)
AATGTCTGCAATTAATCAATCTGTTAATCTGTTATTAGTACGGAGTCACCTAGTGCAG	21900 fluorescence intensity (a.u.)
GGTTTGAAAGAGTTAATTAGGGTTGAATCTTTCACATTAGCGGAGTCACCTAGTGCAG	8180 fluorescence intensity (a.u.)
AACTAACTGGCACGCCCTCATATCACCAACCTTTGGACCTCGGAGTCACCTAGTGCAG	11700 fluorescence intensity (a.u.)
TTCAATCAATATATGTCAAACTCTCCCCACAGTCATCAAACGGAGTCACCTAGTGCAG	6960 fluorescence intensity (a.u.)
CAGATGAAATTGGTACTTATACTTGGCTTTCAGTACACACCGGAGTCACCTAGTGCAG	5400 fluorescence intensity (a.u.)
CCCAATTAAATGCCCGAATCATTCTTCTCGGCCCACTCTGCGGAGTCACCTAGTGCAG	4330 fluorescence intensity (a.u.)
GCTAATCACGGACTAATTAGGCTTAAAAGATTCGTCTCGTCGGAGTCACCTAGTGCAG	44500 fluorescence intensity (a.u.)
TTAATTTACTTTTATAATCAAGTAGATAATACTATGTGACCGGAGTCACCTAGTGCAG	7760 fluorescence intensity (a.u.)
ACAAATTTATGAACTTTAGTTGATTTGTAACTTTTCTAGACGGAGTCACCTAGTGCAG	5230 fluorescence intensity (a.u.)
TTGTGATTACTAAGAATACTGACATAGAACCCAACTTTCCCGGAGTCACCTAGTGCAG	9040 fluorescence intensity (a.u.)
AAGGCTAATTAATTAATTAATTAATAGTCGTAATTAAACACGGAGTCACCTAGTGCAG	50500 fluorescence intensity (a.u.)
TAATGATTTGCCTCGCTTGAACCTTACACCTTAGTTGATCCGGAGTCACCTAGTGCAG	10400 fluorescence intensity (a.u.)
AAAATTATGAAGATATATCAATTTCACAAACATGCAAGTTCGGAGTCACCTAGTGCAG	5260 fluorescence intensity (a.u.)
GAATGAATTGAAACAGACAATGCACACGCTTAGTCCATGACGGAGTCACCTAGTGCAG	5890 fluorescence intensity (a.u.)
ACTTGATGTGATATATCCTAGTCCAACGAATCTGGACAGCCGGAGTCACCTAGTGCAG	6940 fluorescence intensity (a.u.)
TTAGCTATTCAATAATTTGACAAGTTAAACTACTTATTGTCGGAGTCACCTAGTGCAG	5420 fluorescence intensity (a.u.)
